PubChem BioAssay AID1476 (National Center for Advancing Translational Sciences (NCATS), 2009)
Screen size: about 200,000 compounds; about 4,500 (2.2%) were called active. This list was built around the results that the source calls inconclusive (neither active nor inactive); the mix of calls is not that of the screen. Calls follow the shape of the dose curve; as a rule, active = well fitted inhibition curve with a large enough effect; inconclusive = small, poorly fitted or top-dose-only effect, or effect the other way; inactive = flat fitted curve, though single readings scatter. Potencies beside an inconclusive call are fits to weak or partial responses and may not hold up. Some structures have more than one record in an assay (separate samples or runs), and their calls can disagree.

Molecular target: Cruzipain (Trypanosoma cruzi) (UniProt P25779)
Test: qHTS Assay for Promiscuous and Specific Inhibitors of Cruzain (without detergent); also: nearly all actives have a fitted effect of over 40% in size;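 as to max response, negative = inhibition: plate controls were enzyme without inhibitor for no effect and buffer without enzyme for full effect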
Conditions: purified cruzain, Z-FR-AMC fluorescence, no detergent
Procedure, shortened: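 Purified cruzain at 1.5 nM, pre-incubated 15 min with compound at room temperature in 100 mM sodium acetate pH 5.5, 5 mM DTT, 0.00005% Triton X-100. Reaction started with 2 uM Z-FR-AMC; AMC fluorescence increase over 60 s gives rate.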
Potency is read from the fitted curve at half-maximal effect; tags tell the direction and shape of the fitted curve.

Chain of UniProt P25779 (P25779 whole entry, looked up): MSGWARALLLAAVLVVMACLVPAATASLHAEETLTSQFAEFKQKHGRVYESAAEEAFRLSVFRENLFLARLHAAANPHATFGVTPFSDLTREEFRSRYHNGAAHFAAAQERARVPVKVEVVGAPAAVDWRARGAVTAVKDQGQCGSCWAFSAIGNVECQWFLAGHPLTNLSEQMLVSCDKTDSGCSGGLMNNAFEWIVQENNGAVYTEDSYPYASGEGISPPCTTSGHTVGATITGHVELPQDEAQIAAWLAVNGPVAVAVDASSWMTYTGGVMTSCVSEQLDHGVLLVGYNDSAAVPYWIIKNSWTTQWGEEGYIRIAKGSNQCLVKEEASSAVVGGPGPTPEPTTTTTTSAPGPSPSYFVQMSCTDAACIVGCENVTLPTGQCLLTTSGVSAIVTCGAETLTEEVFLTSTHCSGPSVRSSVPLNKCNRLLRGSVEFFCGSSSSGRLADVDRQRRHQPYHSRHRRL

Q: Which Potency does the source give for `Cc1cccc(C)c1Nc1nnc(SCC(=O)c2ccc3c(c2)NC(=O)CO3)s1` here?
A: Its Potency is inconclusive: 25.1 µM [inhibitor, single point].

Q: Which Potency does the source give for `Cc1cc(NC(=O)c2ccc(S(=O)(=O)N3CCCC3)cc2)nc2c1c(=O)oc1ccccc12` here?
A: The Potency was inconclusive: 39.8 µM [inhibitor, single point].

Q: For `CCOc1ccc(CNCc2c(C(=O)O)n(Cc3ccc(C)cc3)c3cc(C)ccc23)cc1`, which max response, negative = inhibition is on record?
A: The max response, negative = inhibition was inactive: -9.18%.

Q: `COc1ccc(CCNCc2ccc(OC)c(OC)c2OC)cc1` was tested. Which Potency did it give?
A: The Potency was inconclusive: 0.158 µM [activator, single point].

Q: With `CCCC(=O)Nc1nnc(Sc2ccc(N(C)C)cc2)s1` as the molecule, how does the Potency read?
A: Its Potency is inconclusive: 39.8 µM [inhibitor, single point].

Q: Which Potency does the source give for `COc1ccc(-c2nc(=S)c3c([nH]2)Oc2ccc(C)cc2C3)cc1O` here?
A: The Potency was active: 10 µM.

Q: Which Potency does the source give for `COc1ccc(/C=C/C(=O)c2cccs2)cc1OC` here?
A: Its Potency is inconclusive: 39.8 µM [activator, partial curve].

Q: How did the Potency turn out when `N#C/C(=C\c1sc(N2CCOCC2)nc1-c1ccccc1)C(=O)Nc1cccc2ccccc12` was run?
A: The Potency was inconclusive: 31.6 µM [inhibitor, single point].

Q: `COc1ccc(CN(Cc2cccnc2)C(=S)NCCc2ccccc2)cc1OC` was tested. Which Potency did it give?
A: Its Potency is inconclusive: 31.6 µM [activator, single point].

Q: `COc1ccccc1-c1noc(CSc2nnc(-c3ccccc3)n2-c2ccc(C)c(C)c2)n1` was tested. Which max response, negative = inhibition did it give?
A: The max response, negative = inhibition was inactive: -9.67%.

Q: Which Potency does the source give for `CCOC(=O)CCCSc1nnc(CCCCCN2C(=O)c3cccc4cccc(c34)C2=O)o1` here?
A: The Potency was inconclusive: 39.8 µM [activator, single point].

Q: How did the max response, negative = inhibition turn out when `CN(C)c1ncc(C(=O)NCc2ccccc2Cl)cn1` was run?
A: Its max response, negative = inhibition is inactive: -11.9%.

Q: Which Potency does the source give for `COc1ccc(CNc2nc(NCc3ccc(OC)cc3)n(C(=O)c3ccccc3[N+](=O)[O-])n2)cc1` here?
A: The Potency was inconclusive: 31.6 µM [inhibitor, single point].

Q: With `CCCOc1ccc(C(=O)N2CCN(c3ccc(N)cc3Cl)CC2)cc1` as the molecule, how does the Potency read?
A: The Potency was inconclusive: 25.1 µM [inhibitor, single point].

Q: Which max response, negative = inhibition does the source give for `COC(=O)c1ccc([C@H]2Nc3ccc(S(=O)(=O)Nc4ccc(F)cc4)cc3[C@H]3C=CC[C@H]32)cc1` here?
A: The max response, negative = inhibition was inactive: -14.8%.

Q: How did the Potency turn out when `O=C(NCc1ccccc1)C1CCCN(S(=O)(=O)c2cccc3nonc23)C1` (stereo not drawn) was run?
A: Its Potency is inconclusive: 31.6 µM [inhibitor, single point].

Q: `O=C(Nc1ccc(Cl)c(Cl)c1)N(Cc1c[nH]c2ccccc12)C1CCCCC1` was tested. Which max response, negative = inhibition did it give?
A: The max response, negative = inhibition was inactive: -1.82%.

Q: How did the max response, negative = inhibition turn out when `COc1ccccc1N1CCN(c2c(CN3CCCC3)c(=O)oc3ccccc23)CC1` was run?
A: The max response, negative = inhibition was inactive: -11.9%.

Q: Which Potency does the source give for `CCOc1ccc(CN2C(=O)c3ccccc3Sc3ccc(C(=O)NCCCN4CCOCC4)cc32)cc1` here?
A: The Potency was inconclusive: 31.6 µM [activator, single point].

Q: For `CC(C)(C)OC(=O)N1CCC(c2cc(=O)n3[nH]cc(C(=O)NC4CCCC4)c3n2)CC1`, which Potency is on record?
A: Its Potency is inconclusive: 31.6 µM [activator, single point].

Q: With `C=C(C)C(=O)c1ccc(OC)cc1` as the molecule, how does the max response, negative = inhibition read?
A: The max response, negative = inhibition was inactive: 6.32%.

Q: With `Cc1cc(NC(=O)CSc2nc3cc(Cl)ccc3s2)no1` as the molecule, how does the Potency read?
A: Its Potency is active: 10 µM.

Q: For `Cc1ccc(-n2[nH]c(C)c(C=Nc3cc(C)ccn3)c2=O)cc1`, which Potency is on record?
A: The Potency was inconclusive: 25.1 µM [activator, single point].

Q: Which Potency does the source give for `CNc1ccc(/C=C/C(=O)c2cccc3ccccc23)cc1[N+](=O)[O-]` here?
A: The Potency was inconclusive: 31.6 µM [inhibitor, single point].

Q: With `CC(C)(C)c1ccc(C(=O)NNC(=O)c2cccc(Br)c2)cc1` as the molecule, how does the Potency read?
A: Its Potency is inconclusive: 39.8 µM [inhibitor, single point].

Q: `CCOC(=O)N1CCN(C(=O)CN(c2ccc(C)cc2)S(=O)(=O)c2c(C)noc2C)CC1` was tested. Which Potency did it give?
A: Its Potency is inconclusive: 31.6 µM [activator, single point].

Q: Which Potency does the source give for `CCOc1ccc2nc3c(cc2c1)CN(CCCO)C(=NCCOC)S3` here?
A: The Potency was inconclusive: 39.8 µM [activator, single point].

Q: Which Potency does the source give for `C#CCOCCOCCOCCNc1nc(N2CCN(C(=O)[C@H](C(C)C)n3cc(CCO)nn3)CC2)nc(N2CCN(C(=O)[C@H](C(C)C)n3cc(CCO)nn3)CC2)n1` here?
A: The Potency was inconclusive: 15.8 µM [activator, partial curve].

Q: How did the Potency turn out when `Cn1c(CNC(=O)c2ccc(Cl)c(Cl)c2)nnc1SCC(=O)Nc1sc2c(c1C#N)CCCC2` was run?
A: The Potency was inconclusive: 39.8 µM [inhibitor, single point].

Q: `Cc1ccc2c(n1)sc1c(-c3ccccc3)c(C#N)c(N)nc12` was tested. Which Potency did it give?
A: The Potency was inconclusive: 25.1 µM [activator, single point].

Q: With `CCC(Oc1ccccc1)C(=O)N1CCN(Cc2cc(=O)n3nc(-c4cccc(C)c4)sc3n2)CC1` (stereo not drawn) as the molecule, how does the Potency read?
A: The Potency was inconclusive: 31.6 µM [activator, single point].

Q: Which Potency does the source give for `CCOC(=O)C1C(C(=O)OC)=C(c2ccc(F)cc2)c2ccc(OC)cc2N1S(=O)(=O)C(F)(F)F` (stereo not drawn) here?
A: Its Potency is inconclusive: 39.8 µM [activator, single point].

Q: With `CCOC(=O)c1oc2ccccc2c1NC(=O)c1cc(OC)cc(OC)c1` as the molecule, how does the Potency read?
A: The Potency was inconclusive: 39.8 µM [activator, single point].

Q: How did the Potency turn out when `COc1cc(OC)c(/C=N/NC(N)=S)cc1Br` was run?
A: Its Potency is active: 0.251 µM.

Q: For `Cc1ccc(Nc2nc(CSc3nnc(-c4cccnc4)n3-c3ccccc3F)cs2)cc1`, which Potency is on record?
A: Its Potency is inconclusive: 31.6 µM [inhibitor, single point].

Q: `CC(NC(=O)CCCN1C(=O)CCn2nc(-c3cn(C)c4ccccc34)cc21)c1ccccc1` (stereo not drawn) was tested. Which Potency did it give?
A: The Potency was inconclusive: 25.1 µM [activator, partial curve].

Q: For `CCOP(=O)(OCC)c1nc(-c2cccc3ccccc23)oc1NCCc1ccc(OC)cc1`, which Potency is on record?
A: The Potency was inconclusive: 0.501 µM [inhibitor, full curve, poor fit].

Q: Which Potency does the source give for `COc1cccc(-c2ccc3c(N)c(C(=O)c4ccc(F)cc4)sc3n2)c1` here?
A: Its Potency is inconclusive: 31.6 µM [inhibitor, single point].

Q: `O=C(Nc1ccc(Cl)cc1C(=O)O)c1ccc2c(c1)C(=O)N(Cc1ccco1)C2=O` was tested. Which Potency did it give?
A: The Potency was inconclusive: 39.8 µM [activator, single point].

Q: `COc1ccc2c(c1)c(CC(=O)Nc1cc(C)ccc1C)c(C)n2C(=O)c1ccc(Cl)cc1` was tested. Which Potency did it give?
A: Its Potency is active: 12.6 µM.

Q: `Cc1cccc(OCc2nnc(SCC(=O)N3CCc4ccccc43)n2C)c1` was tested. Which Potency did it give?
A: Its Potency is inconclusive: 25.1 µM [activator, single point].

Q: For `COc1ccc(C2=NS(=O)(=O)N(C)C(C(=O)Nc3ccc(OC(F)(F)F)cc3)=C2)cc1`, which Potency is on record?
A: Its Potency is active: 10 µM.

Q: For `CC(=O)c1cccc(NC(=O)c2ccc(Cl)c(S(=O)(=O)N3CCOCC3)c2)c1`, which max response, negative = inhibition is on record?
A: Its max response, negative = inhibition is inactive: 0.0494%.

Q: With `O=C(CSc1nnc(-c2cccc(S(=O)(=O)N3CCCCC3)c2)o1)c1ccc[nH]1` as the molecule, how does the Potency read?
A: The Potency was active: 15.8 µM.

Q: How did the max response, negative = inhibition turn out when `CCCc1cc(=O)[nH]c(Nc2ccccc2O)n1` was run?
A: Its max response, negative = inhibition is inactive: -1.18%.

Q: `COc1ccc(-c2nc3scc(CCNS(=O)(=O)c4c(C)cc(C)cc4C)n3n2)cc1OC` was tested. Which Potency did it give?
A: Its Potency is inconclusive: 39.8 µM [activator, single point].

Q: Which max response, negative = inhibition does the source give for `Cc1cc(C)cc(NC(=O)C(CC(C)C)NC(=O)C2CCCCC2)c1` (stereo not drawn) here?
A: The max response, negative = inhibition was inactive: 3.56%.

Q: For `CC(C)Oc1ccc(CNC(=O)c2ccc3nc(C(C)C)oc3c2)cc1`, which Potency is on record?
A: Its Potency is inconclusive: 31.6 µM [activator, single point].

Q: Which Potency does the source give for `COc1ccc(Cl)cc1N=C1NC(=O)CC(C(=O)Nc2ccccc2C(F)(F)F)S1` (stereo not drawn) here?
A: Its Potency is inconclusive: 39.8 µM [activator, single point].

Q: For `CCn1c(C(=O)N2CCC(C(=O)N3CCN(c4ccc(OC)cc4)CC3)CC2)cc2sccc21`, which Potency is on record?
A: Its Potency is inconclusive: 20 µM [activator, partial curve].

Q: For `CCSc1nc2sc3c(c2c(=O)[nH]1)CC(C)(CC)OC3` (stereo not drawn), which Potency is on record?
A: Its Potency is inconclusive: 25.1 µM [inhibitor, single point].

Q: How did the Potency turn out when `COc1c(F)c(F)c(C(=O)Nc2ccccc2N2CCN(C(=O)C(C)C)CC2)c(F)c1F` was run?
A: The Potency was inconclusive: 31.6 µM [activator, single point].

Q: For `c1ccc2cc(-c3cc4ccccn4c3)ccc2c1`, which Potency is on record?
A: The Potency was inconclusive: 39.8 µM [inhibitor, single point].

Q: Which Potency does the source give for `CC1=C(/C=C/C(C)=C/C=C/C(C)=C/C(=O)Nc2ccc(O)cc2)C(C)(C)CCC1` here?
A: Its Potency is active: 15.8 µM.

Q: For `Nc1[nH]n2c(=O)c3c(nc2c1N=Nc1ccc(Cl)cc1)CCCC3`, which Potency is on record?
A: Its Potency is inconclusive: 39.8 µM [activator, single point].

Q: `CCOc1ccc(Nc2nc3c(S(=O)(=O)c4ccc(CC)cc4)nnn3c3ccc(Cl)cc23)cc1` was tested. Which max response, negative = inhibition did it give?
A: The max response, negative = inhibition was inactive: -13.9%.

Q: How did the Potency turn out when `CCOC(=O)Cn1c(S(=O)(=O)Cc2ccc(Cl)cc2)nc(-c2ccccc2)c1-c1ccccc1` was run?
A: The Potency was inconclusive: 25.1 µM [inhibitor, single point].

Q: With `c1ccc(C2Nc3ccccc3-c3nc4ccccc4n32)cc1` (stereo not drawn) as the molecule, how does the Potency read?
A: Its Potency is inconclusive: 25.1 µM [activator, partial curve].

Q: Which Potency does the source give for `CN(C1CCCCC1)S(=O)(=O)c1ccc(S(=O)(=O)N2CCN(CCC#N)CC2)cc1` here?
A: The Potency was inconclusive: 39.8 µM [activator, single point].

Q: How did the Potency turn out when `CC1CCc2nc3ccccc3c(C(=O)OCC(=O)N3CCc4ccccc43)c2C1` (stereo not drawn) was run?
A: The Potency was inconclusive: 39.8 µM [inhibitor, single point].

Q: With `CCOc1ccccc1NC(=O)c1cc(S(=O)(=O)N2CCOCC2)cn1C` as the molecule, how does the max response, negative = inhibition read?
A: The max response, negative = inhibition was inactive: 4.85%.

Q: With `COc1ccc(C(=O)N2CCN(c3ccc([N+](=O)[O-])c(NCCc4ccc(OC)c(OC)c4)c3)CC2)cc1` as the molecule, how does the Potency read?
A: The Potency was inconclusive: 20 µM [activator, single point].

Q: Which Potency does the source give for `COc1ccc(NC(=O)CSc2nc3c(oc4ccccc43)c(=O)n2-c2ccccc2)cc1OC` here?
A: The Potency was inconclusive: 25.1 µM [activator, single point].
